The supplement of paper PMC11417369
The other results are listed elsewhere or left out.

Test system: PF3D7_0420300 AP2 domain 1 (GST-tagged)
Experiment: gcPBM binding intensity (ln(normalized median fluorescence intensity)); higher = stronger DNA binding
Outline: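 Binding intensity values are the highest Masliner-normalised natural-log median intensity among replicate spots of either probe orientation. The binding step lasted 1 h in 1× PBS with 1% milk, 0.2 mg/ml BSA, 0.5% salmon testes DNA and 0.03% Triton X-100, using GST-tagged P. falciparum DNA-binding domains expressed in E. coli on an Agilent 4 × 180k array of primer-extended double-stranded 36-bp intergenic genomic probes plus negative controls. Alexa488 anti-GST antibody and a 488 nm scan detected bound protein.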

Point of comparison: “ATTGATACATCCAATACACACTACATATTATGATGT [CACACA_site6965]”, “gcPBM binding intensity (ln)” value 9.46. Against it:
- AAAATAAAAATTAACTGTACATACATTATTCAAATT [XGTACX_site6106] — lower, 9.19
- TCCTTATTTTGCAGGAGTACCATTTTTTAAAAATAC [XGTACX_site5968] — lower, 9.11
- AATAACAATTATAAAAGTACAGATTTTTATTTCTAA [XGTACX_site5746] — lower, 9.1
- ACAATTACTTATTTTAATTTTTTTAATCTATTGATT [CACACA_negctrl_site967] — lower, 9.13
- TTTTTTTTGTTATGAACATGCAAATTAAAATATAAT [TGCATGCA_site954] — lower, 8.86
- CAACAATTTCGTCATACACACATTCAGAATATATAT [CACACA_site2370] — higher, 9.53
- TACTTTTCTTAAAGATGTACGTTTTAAAAATAAAAT [XGTACX_site14] — lower, 8.8
- TAAATACATAAAAATTGTACACATTGTTTTCTCTTT [XGTACX_site6435] — lower, 9.29
- TATAGTAATATTTGAAGTACAAAATTAAAATAAATA [XGTACX_site7634] — lower, 9.37
- TTAAATAGCTGTAATTGTACAAATAAATACATAAAT [XGTACX_site3097] — lower, 9.34
- TTATATAAGGTCTATATATAAATATTAATGATAAGG [TGCATGCA_negctrl_site354] — lower, 9.06
- GGGAGGATATTTCACAGTACCCAGGAAATCTGCGGA [XGTACX_site2555] — lower, 8.89
- TAAATATATATATGGTGTACCATTTTGGGTTAATAT [XGTACX_site2706] — lower, 9.16
- TTAATATTTTGATGTGTACACATTAAAATAGTTTTA [CACACA_site5712] — lower, 9.03
- TATATTATTTTTTATTGTACTTAAAAATATTATTTG [XGTACX_site1443] — lower, 9.09
- AGAAGTTTATCTTTTAGTACGCATAAAAAAAAAAAA [XGTACX_site2359] — lower, 8.86
- TATAAATAATTATATTGTACTCTTTATATTTTTCTT [XGTACX_site5335] — lower, 9.24
- AATAATATATAAGAAAGTACAAAAAAATAAAATAAA [XGTACX_site3302] — higher, 9.59
- TTTTAATGAAATATCAAAAAAATTTATGATTTCAAA [GTGCAC_negctrl_site662] — lower, 8.47
- AAAAAGAAAAAACTTACACACATATATACACCCATG [CACACA_site8079] — higher, 10.1
- TTCTTTTTTTTTTTTTTTTTTTTATAGTACAAAAAA [TGCATGCA_negctrl_site450] — lower, 8.91
- ATATCAAATAGACAAACACACAAAGGAAGAGTGAAA [CACACA_site3921] — higher, 9.86
- ATCTATATTATTTCTACACACATATCTATAATATGT [CACACA_site7561] — higher, 9.75
- TTTTTTTTTTTGTGTGCATGTGCTAGGAAAGGTAGG [TGCATGCA_site330] — lower, 9.2
- ATATATTTTGGGGACTTTTTAAAAAAGAAGTATTAA [TGCATGCA_negctrl_site337] — lower, 8.85
- TTTTTGTTAATAAGTATGCACTATCTCATTTTTGTA — lower, 9.3
- TTTCTATTACGAACGTGTACATACATTATTCTTAAA [XGTACX_site5816] — lower, 9.27
- TAGAAAAAAATAGATGCATGCAATGAATGAATAATA [TGCATGCA_site14] — higher, 9.54
- GAGCATTACACATATACACACATATAAATAAACATA [CACACA_site7315] — higher, 9.77
- TAGTAGTATTCATCCAGTACATATAAATGTATAATA [XGTACX_site7552] — lower, 9.24
- CTATACTATGAAAAGTGTACGAATAGCTAGCTATTT [XGTACX_site5927] — lower, 9.23
- GAGAAATTTATACATACACACATATAAATATTATAG [CACACA_site7819] — higher, 9.6
- CTTTGCATTACGAACATACACACAGAATAACTGAAA [CACACA_site3024] — higher, 9.53
- TGTTATTATTAAGACACACACACAAAAAAAAAAAAA [CACACA_site1481] — higher, 9.83
- ACAATGATAGTGTAAAGTACATATATATAAAAAAAT [XGTACX_site5928] — higher, 9.69
- TGAACTCATAGGAAAACACACATATGTGCAATATAT [CACACA_site6231] — higher, 9.47
- TTTATAATATGTTATACATGCAGGTACCTTTTTGTA [TGCATGCA_site746] — lower, 9.19
- ATTTATAATTTTTGAGCACACACAAGCATATATATA [CACACA_site8531] — higher, 9.56
- ATTAATAAAAGATAAAGTACAAATCGGAAAATGAAT [XGTACX_site7846] — higher, 9.68
- TTTCAATGTGACACGTGTCCGTAAAATTACATAATT [XGTACX_site7073] — lower, 9.1
- TTGTTCATCTTTTTTTTTTTTTTTTTTTTTTAAATC [CACACA_negctrl_site191] — lower, 8.86
- AAGATTAAACATTGCACACAGAAATATATTTTCTAT [CACACA_site2374] — lower, 9.44
- TATATTAACAAAATGGTGCAATAATTTCTATATTGT [GTGCAC_site9430] — lower, 9.21
- TGTGTAAGCACATACAAACACACAACCTTATTTTTA [CACACA_site2187] — lower, 9.44
- TTATTATATTAAAAGAGGACACATTTATTTTTTTTT [XGTACX_site1241] — lower, 9.01
- AAAAAAAAAAAAAAAAAAAAAAAAAAAAATAAAAAA [CACACA_negctrl_site59] — lower, 9.21
- AAAATATTTAATAGAAGTACACATGTATATATACAT [XGTACX_site8942] — lower, 9.38
- TTTTGAATATATTAAATAAATTAAAAATCTACAAAC [GTGCAC_negctrl_site622] — lower, 9.01
- AGATCATAATATTATACACACATTATATATCTGTAA [CACACA_site4925] — higher, 9.59
- TAATAAATTCAAAACATAAAAAGGAAAAAAAAAAAA [CACACA_negctrl_site1330] — lower, 9.29
- TTATTATATACAAAATGTACACAGAATAATTTGAAT [XGTACX_site2314] — lower, 9.29
- ATATATATATATATATGTACATAATATATTATATAT [XGTACX_site924] — lower, 9.05
- TTTTTTTTTTTTTTGGTGCAGTTCACATATTATATA [GTGCAC_site9996] — lower, 9.11
- TTTTTTTTTTTTTGAACACACATTATTAATTTTTAT [CACACA_site308] — lower, 9.29
- ATATATTTTTTTTATACATGCAATGCATTTACGTTG [TGCATGCA_site565] — lower, 9.22
- TTTTTTATATATTAGGAATTTATAAAATTAGAAGGT [GTGCAC_negctrl_site617] — lower, 8.92
- GTATTAATTTTAAGGTGTACGCAAAAAATTTAATTT [XGTACX_site718] — lower, 9.09
- AACCAGTTGATGTGTACACATATAGTAATAATTTTA [CACACA_site5564] — lower, 9.41
- TGTATAAAAAGAAAAAATCGTATGTGTTATCAAAAA [GTGCAC_negctrl_site490] — lower, 9.31
- ACGATTCAAAGGGAATATAAAATATTATTATCTATA [CACACA_negctrl_site1739] — lower, 8.99
- AATAGAATAATCCTTACACACACACCCACACGAATA [CACACA_site8053] — higher, 10
- AACCAATATGCGTATACACACATAAATATAAATATA [CACACA_site3780] — higher, 9.59
- ACATATTGTAGATATTGTACATATTGTGTATATATT [XGTACX_site7620] — lower, 9.41
- AATATGGAATGAAATAACAATCGGGAGTATATTACC [CACACA_negctrl_site93] — higher, 9.72
- TATATATATGTTCTTACACACACGAATATATATATG [CACACA_site3304] — higher, 9.71
- TTTTTTTTTTTTTTTTTTTTTTTTTCATATTAATAT [GTGCAC_negctrl_site351] — lower, 8.36
- TTGGCATACAGACACACACACACACCCCCACATATA [CACACA_site590] — higher, 10.1
- AATTTATTAAAAAAATGTACTTATTTTTTTGTATAA [XGTACX_site5844] — lower, 8.95
- TTTTTTTTTTTTTTTACACACTTTATTCAAACAACT [CACACA_site4104] — lower, 9.08
- AAAAAAATATATAATAGTACATATATAGGAATATAT [XGTACX_site4591] — lower, 9.45
- TAATATCTTGAGTCATCACACATTGATTAATGAATC [CACACA_site5735] — lower, 9.02
- TGAATACAGATATTCACACAAATAGTTTTGATATAT [CACACA_site5527] — lower, 9.09
- CTTTTTTTTTTTTTTGCACACACATATATAAATATA [CACACA_site3950] — higher, 9.83
- AGTGGAAATTTTATTTGTACATAAATATTTACATAC [XGTACX_site633] — lower, 9.18
- CTTTCTCTCAAAATGACATGCAATTTGTTTCTTTTT [TGCATGCA_site169] — lower, 9.32
- ATATATATATATATTTGTACTTAATTGATTTTACTT [XGTACX_site2663] — lower, 9.34
- ATGCGTTTAGCAAAAAGTACATATATATATAATATT [XGTACX_site1928] — lower, 9.22
- ATTATTGATTTATAAACACACACTCGAAGATGTTTA [CACACA_site8294] — lower, 9.27
- ATTTTTTCTAGACATGCATGTGAAATTTACTTTTTT [TGCATGCA_site305] — lower, 9.24
- TTGAAATACTTTATTTGTACATATAGCAAAGTGTAT [XGTACX_site8782] — lower, 9.12
- GTTATAGAAGCATTCACACACACACGGACATACACA [CACACA_site6801] — higher, 10.1
- TTTTTTTATAAAAATGAACACACACCGATATATATA [CACACA_site9161] — higher, 9.63
- TATTATAATATATTTGTGCACATAATACCTCCGCTA [GTGCAC_site9570] — lower, 9.19
- AATATATACATATGTATGCACTTTTTAATTATTTTT — lower, 9.4
- ACATATAAGTTATATACACACAATAATATGTAAATA [CACACA_site6766] — higher, 9.53
- ATATTTTTTATAAAATGTACTTATTATTAGAATATA [XGTACX_site2460] — lower, 8.9
- TACAAAATATGGTAATAAAGTAGTTACATGAATTGG [XGTACX_negctrl_site522] — lower, 9.32
